{"source": "the supplement of paper PMC11348887", "note": "Counter-ions that a name gives are not always drawn. The list shows a part of the results. Rule as the data show it: active = -2 or less and inactive = the rest. Single values are uncertain, as repeats are few or missing.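 Also: nuclei counted from DAPI counterstain by automated high-content image analysis, four fields per well at ×20 in 384-well plates, with sequential b-score then z-score normalization.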"}
{"system": "hPSC-derived cortical neurons (WA09)", "assay": "nuclei number (viability) z-score; higher = more surviving cells", "settings": "5 µM; treatment: days 7-14 after plating, readout day 21"}
{"smiles": "COc1ccc(C(=O)c2ccccc2O)c(O)c1", "note": "[2,2_-Dihydroxy-4-methoxybenzophenone]", "nuclei number (z-score)": "inactive: 0.233"}
{"smiles": "COc1ccc(CN2CCN(C(c3ccc(F)cc3)c3ccc(F)cc3)CC2)c(OC)c1OC", "note": "[Lomerizine HCl]", "nuclei number (z-score)": "active: -2"}
{"smiles": "CC(C)Cc1ccc(C(C)C(=O)O)cc1", "note": "(centres undefined) [Ibuprofen]", "nuclei number (z-score)": "inactive: -0.716"}
{"smiles": "CC(C)Cc1ccc(C(C)C(=O)O)cc1", "note": "(centres undefined) [Ibuprofen Lysine]", "nuclei number (z-score)": "inactive: 1.33"}
{"smiles": "Cc1cc(N2CCN([C@@H]3CN[C@H](C(=O)N4CCSC4)C3)CC2)n(-c2ccccc2)n1", "note": "[Teneligliptin hydrobromide]", "nuclei number (z-score)": "inactive: -0.257"}
{"smiles": "CC[C@@H]([C@H](C)O)n1ncn(-c2ccc(N3CCN(c4ccc(OC[C@@H]5CO[C@@](Cn6cncn6)(c6ccc(F)cc6F)C5)cc4)CC3)cc2)c1=O", "note": "[Posaconazole]", "nuclei number (z-score)": "inactive: 0.642"}
{"smiles": "O=C(O)c1ccccc1", "note": "[Benzoic Acid]", "nuclei number (z-score)": "inactive: 0.766"}
{"smiles": "CCCCC[C@H](O)/C=C/[C@H]1[C@H](O)CC(=O)[C@@H]1CCCCCCC(=O)O", "note": "[Alprostadil]", "nuclei number (z-score)": "inactive: -0.159"}
{"smiles": "NC1=N[C@@](c2cccc(-c3cncnc3)c2)(c2ccnc(C(F)F)c2)c2cccc(F)c21", "nuclei number (z-score)": "inactive: 0.631"}
{"smiles": "COC(=O)[C@]12CCC(C)(C)C[C@H]1[C@H]1C(=O)C=C3[C@@]4(C)C=C(C#N)C(=O)C(C)(C)[C@@H]4CC[C@@]3(C)[C@]1(C)CC2", "note": "[Bardoxolone Methyl]", "nuclei number (z-score)": "active: -6.06"}
{"smiles": "CN1CCN(c2nc(C3=C(c4c[nH]c5ccccc45)C(=O)NC3=O)c3ccccc3n2)CC1", "note": "[Sotrastaurin]", "nuclei number (z-score)": "inactive: -0.332"}
{"smiles": "COc1cc2ncnc(Nc3ccc(F)c(Cl)c3)c2cc1OCCCN1CCOCC1", "note": "[Gefitinib (ZD1839)]", "nuclei number (z-score)": "inactive: -0.0624"}
{"smiles": "NCCCCC(NC(=O)C1CCCN1C(=O)C1CSSCC(N)C(=O)NC(Cc2ccc(O)cc2)C(=O)NC(Cc2ccccc2)C(=O)NC(CCC(N)=O)C(=O)NC(CC(N)=O)C(=O)N1)C(=O)NCC(N)=O", "note": "(centres undefined) [Lypressin Acetate]", "nuclei number (z-score)": "inactive: 1.87"}
{"smiles": "CC(C(=O)O)c1ccc(C(=O)c2cccs2)cc1", "note": "(centres undefined) [Suprofen]", "nuclei number (z-score)": "inactive: 1.17"}
{"smiles": "O=C(c1ccc(OCCCc2c[nH]cn2)cc1)C1CC1", "note": "[Ciproxifan]", "nuclei number (z-score)": "inactive: 6.24"}
{"smiles": "CC(C)[C@H](N)C(=O)OCC(CO)OCn1cnc2c(=O)[nH]c(N)nc21", "note": "(some centres undefined) [Valganciclovir HCl]", "nuclei number (z-score)": "inactive: -0.0767"}
{"smiles": "CN1CCC[C@@H]1CCO[C@](C)(c1ccccc1)c1ccc(Cl)cc1", "note": "[Clemastine Fumarate]", "nuclei number (z-score)": "inactive: -0.408"}
{"smiles": "CCOc1ccc(NC(C)=O)cc1", "note": "[Phenacetin]", "nuclei number (z-score)": "inactive: 0.0928"}
{"smiles": "CN1CCN(Cc2ccc(NC(=O)Nc3ccc(Oc4ccnc(N)n4)cc3)cc2C(F)(F)F)CC1", "nuclei number (z-score)": "active: -5.93"}
{"smiles": "CC[N+](CC)(CC)CCOc1cccc(OCC[N+](CC)(CC)CC)c1OCC[N+](CC)(CC)CC", "note": "[Gallamine Triethiodide]", "nuclei number (z-score)": "inactive: -0.203"}
{"smiles": "CCOC(=O)[N-]c1c[n+](N2CCOCC2)no1", "note": "[Molsidomine]", "nuclei number (z-score)": "inactive: 0.265"}
{"smiles": "CC(C)(C)NCC(O)c1cc(O)cc(O)c1", "note": "(centres undefined) [Terbutaline Sulfate]", "nuclei number (z-score)": "inactive: 0.397"}
{"smiles": "CN(C)CCCCC(=O)Nc1ccc(NC(=S)NC(=O)c2ccc(C(C)(C)C)cc2)cc1", "note": "[Tenovin-6]", "nuclei number (z-score)": "inactive: -1.82"}
{"smiles": "C=C(c1ccc(C(=O)O)cc1)c1cc2c(cc1C)C(C)(C)CCC2(C)C", "note": "[Bexarotene]", "nuclei number (z-score)": "inactive: 2.03"}
{"smiles": "CCc1oc2ccccc2c1C(=O)c1cc(Br)c(O)c(Br)c1", "note": "[Benzbromarone]", "nuclei number (z-score)": "inactive: -0.309"}
{"smiles": "CC/C(=C(\\c1ccccc1)c1ccc(OCCN(C)C)cc1)c1ccccc1", "note": "[Tamoxifen]", "nuclei number (z-score)": "active: -3.56"}
{"smiles": "CC/C(=C(\\c1ccccc1)c1ccc(OCCN(C)C)cc1)c1ccccc1", "note": "[Tamoxifen Citrate]", "nuclei number (z-score)": "active: -2.41"}
{"smiles": "Cn1cc(-c2ccc(S(=O)(=O)n3ccc(/C=C/C(=O)Nc4ccccc4N)c3)cc2)cn1", "nuclei number (z-score)": "inactive: -0.32"}
{"smiles": "CCN(CCCOc1ccc2c(Nc3cc(CC(=O)Nc4cccc(F)c4)[nH]n3)ncnc2c1)CCOP(=O)(O)O", "note": "[Barasertib (AZD1152-HQPA)]", "nuclei number (z-score)": "inactive: 0.028"}
{"smiles": "Cc1ccccc1N=Nc1ccc(NC(=O)c2ccnn2C)c(C)c1", "nuclei number (z-score)": "inactive: 0.0346"}
{"smiles": "O=c1[nH]nc(Sc2ncc([N+](=O)[O-])s2)n1-c1ccc2c(c1)OCCO2", "nuclei number (z-score)": "active: -6.44"}
{"smiles": "Cc1c[nH]c(/C=C2\\C(=O)Nc3ccccc32)c1CCC(=O)O", "nuclei number (z-score)": "inactive: 0.409"}
{"smiles": "CN[C@@H]1[C@H](O[C@H]2[C@H](O[C@H]3[C@H](O)[C@@H](O)[C@H](NC(=N)N)[C@@H](O)[C@@H]3NC(=N)N)O[C@@H](C)[C@]2(O)CO)O[C@@H](CO)[C@H](O)[C@H]1O", "note": "[Dihydrostreptomycin sulfate]", "nuclei number (z-score)": "inactive: 0.875"}
{"smiles": "COc1c2ccoc2cc2oc(=O)ccc12", "note": "[Bergapten]", "nuclei number (z-score)": "inactive: 1.97"}
{"smiles": "CCCCCCCCCCCC1=C(O)C(=O)C=C(O)C1=O", "note": "[Embelin]", "nuclei number (z-score)": "inactive: -0.771"}
{"smiles": "NCCCC(N)(C(=O)O)C(F)F", "note": "(centres undefined) [Eflornithine hydrochloride hydrate]", "nuclei number (z-score)": "inactive: 1.8"}
{"smiles": "O=C(O)CNC(=O)c1nc(Cl)c2ccccc2c1O", "nuclei number (z-score)": "inactive: 0.0222"}
{"smiles": "CCOCc1nc2c(N)nc3ccccc3c2n1CC(C)(C)O", "note": "[Resiquimod]", "nuclei number (z-score)": "inactive: -0.279"}
{"smiles": "CN(C)CCOC(c1ccc(Cl)cc1)c1ccccn1", "note": "(centres undefined) [CarbinoxaMine Maleate]", "nuclei number (z-score)": "inactive: 0.462"}
{"smiles": "O=C1CCc2ccc(OCCCCN3CCN(c4cccc(Cl)c4Cl)CC3)cc2N1", "note": "[Aripiprazole]", "nuclei number (z-score)": "inactive: 1.39"}
{"smiles": "Cc1ccccc1C(OCCN(C)C)c1ccccc1", "note": "(centres undefined) [Orphenadrine Citrate]", "nuclei number (z-score)": "inactive: 0.0915"}
{"smiles": "Cc1nn(C)c2c1C(c1ccc(C(F)(F)F)cc1)C(C#N)=C(N)O2", "note": "(centres undefined)", "nuclei number (z-score)": "inactive: 1.75"}
{"smiles": "O=C1C(O)=C([C@H]2CC[C@H](c3ccc(Cl)cc3)CC2)C(=O)c2ccccc21", "note": "[Atovaquone]", "nuclei number (z-score)": "inactive: 3.22"}
{"smiles": "CNCc1cc(-c2ccccc2F)n(S(=O)(=O)c2cccnc2)c1", "nuclei number (z-score)": "inactive: -0.447"}
{"smiles": "CCCC(=O)[O-].[Na+]", "note": "[Sodium butyrate]", "nuclei number (z-score)": "inactive: -0.221"}
{"smiles": "C/C=C(/C)C(=O)O[C@H]1[C@H](OC(C)=O)[C@@]2(CO)C(CC1(C)C)C1=CCC3[C@@]4(C)CCC(O[C@@H]5O[C@H](C(=O)O)[C@@H](O[C@@H]6O[C@H](CO)[C@@H](O)[C@H](O)[C@H]6O)[C@H](O)[C@H]5O[C@@H]5O[C@H](CO)[C@@H](O)[C@H](O)[C@H]5O)[C@](C)(CO)C4CC[C@@]3(C)[C@]1(C)C[C@H]2O.C/C=C(\\C)C(=O)O[C@H]1[C@H](OC(C)=O)[C@@]2(CO)C(CC1(C)C)C1=CCC3[C@@]4(C)CCC(O[C@@H]5O[C@H](C(=O)O)[C@@H](O[C@@H]6O[C@H](CO)[C@@H](O)[C@H](O)[C@H]6O)[C@H](O)[C@H]5O[C@@H]5O[C@H](CO)[C@@H](O)[C@H](O)[C@H]5O)[C@](C)(CO)C4CC[C@@]3(C)[C@]1(C)C[C@H]2O", "note": "(some centres undefined) [Escin]", "nuclei number (z-score)": "active: -2.05"}
{"smiles": "COCCOc1ccc2c(c1)ncn2-c1ccc2cccc(N3CCC(N)CC3)c2n1", "nuclei number (z-score)": "inactive: 1.28"}
{"smiles": "Cc1cc(Nc2cc(N3CCN(C)CC3)nc(/C=C/c3ccccc3)n2)n[nH]1", "note": "[ENMD-2076 L-(+)-Tartaric acid]", "nuclei number (z-score)": "inactive: -0.415"}
{"smiles": "Cc1cc(Nc2cc(N3CCN(C)CC3)nc(/C=C/c3ccccc3)n2)n[nH]1", "nuclei number (z-score)": "inactive: -0.797"}
{"smiles": "Cc1cc(-c2ccc(CC(=O)Nc3ccc(-c4cccnc4)cc3)cc2)ccn1", "nuclei number (z-score)": "inactive: -0.828"}
{"smiles": "COc1ccc(C2CC(c3ccccc3)=NN2c2ccc(S(N)(=O)=O)cc2)cc1", "note": "(centres undefined)", "nuclei number (z-score)": "inactive: 0.159"}
{"smiles": "OC[C@H]1O[C@@H](c2ccc(Cl)c(Cc3ccc(O[C@H]4CCOC4)cc3)c2)[C@H](O)[C@@H](O)[C@@H]1O", "nuclei number (z-score)": "inactive: 0.00464"}
{"smiles": "Cc1nc(C#Cc2ccnc(Cl)c2)c(C)n1-c1ccc(OC(F)(F)F)cc1", "nuclei number (z-score)": "inactive: 1.15"}
{"smiles": "CN(C)c1cccc(-c2c3c(=O)n(-c4ccccc4Cl)[nH]c3cc(=O)n2C)c1", "nuclei number (z-score)": "inactive: -0.319"}
{"smiles": "COC(=O)C1=C(C)NC(C)=C(C(=O)OCCN(C)Cc2ccccc2)C1c1cccc([N+](=O)[O-])c1", "note": "(centres undefined) [Nicardipine HCl]", "nuclei number (z-score)": "inactive: -0.987"}
{"smiles": "CC1(C)CNc2cc(NC(=O)c3cccnc3NCc3ccncc3)ccc21", "note": "[Motesanib Diphosphate (AMG-706)]", "nuclei number (z-score)": "inactive: -0.459"}
{"smiles": "CC[C@@H]1/C=C(\\C)C[C@H](C)C[C@H](OC)[C@H]2O[C@@](O)(C(=O)C(=O)N3CCCC[C@H]3C(=O)O[C@H](/C(C)=C/[C@@H]3CC[C@@H](O)[C@H](OC)C3)[C@H](C)[C@@H](O)CC1=O)[C@H](C)C[C@@H]2OC", "note": "[Ascomycin (FK520)]", "nuclei number (z-score)": "active: -2.82"}
{"smiles": "COc1ccc(N2C(=O)/C(=C\\c3ccc([N+](=O)[O-])s3)SC2=S)cc1", "nuclei number (z-score)": "inactive: 4.39"}
{"smiles": "Oc1cc(O)c(Cl)cn1", "note": "[Gimeracil]", "nuclei number (z-score)": "inactive: 1.92"}
{"smiles": "COc1ccc2cc(OCC3(C(=O)O)CN(C(=O)c4ccc(F)cc4)C3)ccc2c1", "nuclei number (z-score)": "inactive: -0.195"}
{"smiles": "COC(=O)C1=C(C)NC(C)=C(C(=O)OCC(C)C)C1c1ccccc1[N+](=O)[O-]", "note": "(centres undefined) [Nisoldipine]", "nuclei number (z-score)": "inactive: -1.56"}
{"smiles": "CC(O)(P(=O)(O)O)P(=O)(O)O", "note": "[Etidronate]", "nuclei number (z-score)": "inactive: 0.468"}
{"smiles": "Nc1ncnc2c1C(=O)N(c1ccc([C@H]3CC[C@H](CC(=O)O)CC3)cc1)CCO2", "nuclei number (z-score)": "inactive: 0.587"}
{"smiles": "O=C1[C@H](CC[C@H](O)c2ccc(F)cc2)[C@@H](c2ccc(O)cc2)N1c1ccc(F)cc1", "note": "[Ezetimibe]", "nuclei number (z-score)": "inactive: -0.689"}
